Experimental data from publication PMC4336329 (PLoS ONE, 2015).
In all, about 310,000 compounds went through this assay and about 2,200 (0.71%) showed an effect of 50% or more. The effect is printed as a negative number. This is one part of the list.

Target: human ether-à-go-go-related gene (hERG) potassium channel (human, UniProt Q12809)
Experiment: primary screen, population patch clamp on CHO cells stably expressing hERG

Chain of human ether-à-go-go-related gene (hERG) potassium channel (Q12809 whole entry, looked up): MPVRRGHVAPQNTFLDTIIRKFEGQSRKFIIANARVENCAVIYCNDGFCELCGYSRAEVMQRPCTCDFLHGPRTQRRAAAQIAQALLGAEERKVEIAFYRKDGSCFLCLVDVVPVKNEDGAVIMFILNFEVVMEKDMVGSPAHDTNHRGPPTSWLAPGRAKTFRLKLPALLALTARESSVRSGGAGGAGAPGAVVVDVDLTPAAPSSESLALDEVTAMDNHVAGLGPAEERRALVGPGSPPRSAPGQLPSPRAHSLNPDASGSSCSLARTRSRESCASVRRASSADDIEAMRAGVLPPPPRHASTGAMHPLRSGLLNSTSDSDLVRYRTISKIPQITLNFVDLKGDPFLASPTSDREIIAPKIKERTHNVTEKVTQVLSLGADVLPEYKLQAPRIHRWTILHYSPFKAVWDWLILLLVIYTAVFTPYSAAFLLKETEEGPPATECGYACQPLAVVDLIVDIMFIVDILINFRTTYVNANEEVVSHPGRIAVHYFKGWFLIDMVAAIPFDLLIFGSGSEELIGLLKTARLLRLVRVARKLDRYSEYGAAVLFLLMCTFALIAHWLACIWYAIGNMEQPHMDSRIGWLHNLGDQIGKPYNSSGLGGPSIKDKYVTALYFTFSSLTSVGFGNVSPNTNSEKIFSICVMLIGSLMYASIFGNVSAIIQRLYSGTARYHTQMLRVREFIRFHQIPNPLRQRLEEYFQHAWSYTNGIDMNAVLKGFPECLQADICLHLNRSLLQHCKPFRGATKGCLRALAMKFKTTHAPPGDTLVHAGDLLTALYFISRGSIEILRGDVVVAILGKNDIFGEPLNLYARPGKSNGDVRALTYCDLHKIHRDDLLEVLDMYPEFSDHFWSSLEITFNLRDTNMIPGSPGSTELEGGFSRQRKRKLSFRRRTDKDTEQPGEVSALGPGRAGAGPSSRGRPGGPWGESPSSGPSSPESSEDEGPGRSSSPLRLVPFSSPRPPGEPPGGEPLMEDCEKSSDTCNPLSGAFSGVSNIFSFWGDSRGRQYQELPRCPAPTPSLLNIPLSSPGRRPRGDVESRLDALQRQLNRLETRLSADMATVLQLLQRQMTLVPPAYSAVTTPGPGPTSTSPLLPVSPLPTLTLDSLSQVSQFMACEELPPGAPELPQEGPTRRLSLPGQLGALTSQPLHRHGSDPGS

Row | SMILES | hERG current change (%, negative = inhibition) at 1uM [%]
1 | Cc1cccc(-n2c(=O)c3c(C)c(C)sc3n(CC(N)=O)c2=O)c1 | -8.97
2 | O=C(CCc1nnc(C2CCCCC2)o1)NCCCOc1cccnc1 | 14.1
3 | COc1ccccc1-c1cc(C(F)(F)F)n2ncc(C(=O)N3CCc4ccccc4C3)c2n1 | 7.36
4 | Cc1cc([N+](=O)[O-])nn1Cc1ccccc1F | 14.5
5 | COCCn1c(SCC(=O)Nc2cc(C)on2)nc2c(c1=O)SC(C)C2 (stereo not drawn) | 9.29
6 | COC(=O)[C@@H]1C[C@@]2(O)[C@@H](O)[C@@H](O)[C@@H](O)C[C@H]2N1C/C=C/c1ccccc1 | 11.9
7 | Br.CCc1ccc(OCC(=O)NN2Cc3ccccc3C2=N)cc1 | -0.0505
8 | O=C(CN1C(=O)S/C(=C\c2ccc(O)cc2)C1=O)c1ccccc1 | 12.8
9 | Cc1noc(C)c1C(=O)Nc1ccccc1N1CCOCC1 | 8.06
10 | Cc1ccc(C)c(CN2C(=O)C3(OCCCO3)c3ccccc32)c1 | -3.52
11 | CCOC(=O)Cc1cc(=O)n2[nH]c(C)cc2n1 | 8.16
12 | Cc1cc(C)n2nc(SCc3nc4ccccc4[nH]3)nc2n1 | 2.47
13 | NS(=O)(=O)c1ccc(NC(=O)COc2ccc(S(=O)(=O)N3CCCC3)cc2)cc1 | 14.5
14 | COc1ccc2c(c1)C(SCC(=O)NCc1ccccc1)CC(C)(C)O2 (stereo not drawn) | 7.68
15 | CC(C)C(=O)NNS(=O)(=O)c1ccccc1[N+](=O)[O-] | 6.04
16 | COc1ccccc1CN=C1Nc2ccccc2CS1 | 10.5
17 | Cc1ccccc1N=C1SC(CC(=O)Nc2ccc3ccccc3c2)C(=O)N1Cc1ccccn1 (stereo not drawn) | 7.59
18 | CC(=O)c1ccc(S(=O)(=O)NC2CCSc3ccccc32)cc1 (stereo not drawn) | 2.78
19 | C/C(=N\Nc1ccc(Cl)c(C(=O)O)c1)c1ccc(Br)s1 | 5.27
20 | O=C(Cc1cn2ccsc2n1)OCc1nc2ccccc2s1 | 10.6
21 | Cc1cccc(N/C(=N/S(=O)(=O)c2ccccc2)c2ccccc2)n1 | 1.73
22 | O=C(Nc1nc2ccc(S(=O)(=O)N3CCCCC3)cc2s1)c1cccnc1 | -16.9

Row | SMILES | hERG current change (%, negative = inhibition) at 1uM [%]
23 | Cc1ccc2nc(-c3cccnc3)c(Nc3ccccc3C)n2c1 | 10.3
24 | COc1ccc(NC(=O)CCSCCC(=O)Nc2ccc(OC)cc2OC)c(OC)c1 | 6.35
25 | Cc1ccc(S(=O)(=O)N2CCN(C(=O)c3cccs3)CC2)c(C)c1 | 0.149
26 | COc1ccccc1NC(=O)CSc1nnc(-c2ccco2)n1N | 19.7
27 | O=C(/C=C/c1ccc(F)cc1)NC(=S)N1CCCCC1c1cccnc1 (stereo not drawn) | -23
28 | CCC(=O)N1CCc2cc(S(=O)(=O)CCC(=O)NC(C)CC)ccc21 (stereo not drawn) | 7.83
29 | CCOC(=O)c1ccccc1NC(=O)COC(=O)CCCOc1ccccc1 | 8.06
30 | CC(C)(C)NC(=O)C(c1ccc(O)cc1)N(Cc1ccco1)C(=O)Cn1nnc(-c2cccs2)n1 (stereo not drawn) | -2.46
31 | CCNC(=O)COc1ccc(Br)cc1Cl | 7.56
32 | COc1ccc(C(=O)OCC(=O)NC(=O)NC2CCCC2)c(OC)c1 | 12.7
33 | O=C(CSc1ccccc1C(=O)N1CCN(c2ccccc2)CC1)N1CCCC1 | 13.9
34 | CCOc1cc(Br)c(CC(=O)NC2CCCCCC2)cc1OCC | 16.6
35 | COc1ccc(CNc2nccs2)cc1OC | 13
36 | CC1CN(O)C2CCc3c(no[n+]3[O-])C12O (stereo not drawn) | 5.34
37 | COc1ccc(N(C(=O)c2snc(C(N)=O)c2N)C(C(=O)NC2CCCCC2)c2ccc(C)o2)c(OC)c1 (stereo not drawn) | 6.4
38 | COc1ccccc1-c1nnn(CC#N)n1 | 3.77
39 | COC(=O)c1c(NC(=O)CCCC(=O)O)sc(C)c1C | 11.9
40 | O=C(NNC(=O)c1ccc(Cn2cccn2)o1)NC12CC3CC(CC(C3)C1)C2 | 17.3
41 | O=C(Nc1ccc(Oc2ncnc3cc(Cl)ccc23)nc1)Nc1cccc(C(F)(F)F)c1 | 0.781
42 | O=C(CNC(=O)c1ccncc1)N/N=C/c1ccccn1 | 11.8
43 | CCC(NS(=O)(=O)c1ccc(C)cc1)C(=O)N1CCOCCOCCOCC1 (stereo not drawn) | 20.3
44 | COc1ccccc1NC(=S)N(Cc1ccccn1)Cc1ccccc1Cl | -2.77

Row | SMILES | hERG current change (%, negative = inhibition) at 1uM [%]
45 | O=C(NCCCc1ccncc1)C1CCC(=O)N(Cc2ccc(Cl)cc2)C1 (stereo not drawn) | 0.771
46 | CCOC(=O)C1CCCN(S(=O)(=O)c2nc3nc(C)cc(C)n3n2)C1 (stereo not drawn) | 14.2
47 | CCOC(=O)c1sc(NC(=O)c2cccnc2)c(C#N)c1C | 24
48 | O=C(NCc1ccc2c(c1)OCO2)c1ccc(CS(=O)(=O)c2cccc(C(F)(F)F)c2)o1 | 6.15
49 | CCOC(=O)c1c(-c2ccccc2)n(C)c2ccc(O)cc12 | 7.42
50 | COc1ccc(-c2noc3c2-c2nc(-c4ccc(Cl)cc4)sc2CC3)cc1 | 4.12
51 | CC1(CCc2ccccc2)NC(=O)N(Cc2nnc(-c3ccccc3Br)o2)C1=O (stereo not drawn) | -2.2
52 | CN(C)CCNC(=O)CCCNC(=O)Cn1cnc2sc3c(c2c1=O)CCCC3 | -0.494
53 | CC(C)(C)C1CCC(C(=O)Nc2nccs2)CC1 (stereo not drawn) | 10.1
54 | COc1cccc(/C=C/C(=O)Nc2ccc3c(c2)OCCO3)c1OC | 15.5
55 | Cc1cccc(N/N=C/c2ccc(O)c(O)c2O)c1 | 8.98
56 | CC(=O)N(Cc1ccccc1)Cc1cn(CCC#N)nc1-c1cccc([N+](=O)[O-])c1 | 1.58
57 | O=C(NCc1ccc(F)cc1)C(c1ccc(F)cc1)N(C(=O)c1csnn1)C1CC1 (stereo not drawn) | 12.9
58 | CCN(c1cccc(C)c1)S(=O)(=O)c1nnc(NC(=O)c2ccco2)s1 | 2.7
59 | CCOc1ncccc1C(=O)Nc1ccccc1F | 8.01
60 | Cc1ccc2oc(C(=O)N(C)CCC(O)c3ccccc3)c(C)c2c1 (stereo not drawn) | 14.4
61 | O=c1oc(-c2ccccc2)nc2c1cnn2-c1ccccc1 | 9.63
62 | CCOC(=O)[C@H]1[C@H]2COc3cc(OC)ccc3[C@@H]2N2C(=O)CN(CCc3c[nH]c4ccccc34)C(=O)[C@@]12C | 12.7
63 | Cc1nnc(SCC(=O)Nc2ccccc2F)n(N)c1=O | 6.24
64 | CSc1ccccc1C(=O)NC1CCCN(c2ccc(C(F)(F)F)cn2)C1 (stereo not drawn) | 6.58
65 | Cn1cnnc1SCC(=O)Nc1ccccc1C(=O)NC1CCCC1 | 4.57
66 | OCCSc1nc2ccccc2n1CCOc1ccccc1 | 14.8

Row | SMILES | hERG current change (%, negative = inhibition) at 1uM [%]
67 | Cc1cccn2c(=O)c(/C=C(\C#N)C(=O)NCc3ccco3)c(N3CCCCC3)nc12 | -10.2
68 | Cc1ccc(S(=O)(=O)N2CCCCC2)cc1NC(=O)c1cc2ccccc2o1 | 12.2
69 | Cc1ccc(-n2c(CNc3ccc(F)cc3)nnc2SCC(=O)NCc2ccco2)cc1 | 2.89
70 | CC(=O)N1CCc2cc(S(=O)(=O)NC(CC(C)C)C(=O)N3CCCC3)ccc21 (stereo not drawn) | 13.1
71 | O=C(OCC(=O)N1CCCC1)c1cc([N+](=O)[O-])ccc1Cl | 12.1
72 | O=C(Nc1ccn(Cc2c(F)c(F)cc(F)c2F)n1)c1ccc(COc2cc(Cl)ccc2Cl)o1 | 2.31
73 | COCCCNC(=O)COc1ccc(Cl)c(C)c1 | -0.487
74 | O=C(NCCS(=O)(=O)N1CCN(c2ccccc2)CC1)C1CC(=O)N(c2ccc(F)cc2)C1 (stereo not drawn) | -0.544
75 | O=C(Nc1ccc(C(=O)N2CCCC2)cc1)c1ccc2c(c1)OCO2 | 1.71
76 | CN(Cc1ccccc1)C(=O)c1nc2ccccn2c1CNCCCOc1cccnc1 | -29.5
77 | Cn1c(=O)c2c(nc(NCCNC(=O)c3ccco3)n2Cc2ccccc2F)n(C)c1=O | 3.9
78 | COc1ccc(NC(=O)C2CCN(S(=O)(=O)c3ccc4c(c3)NC(=O)CO4)CC2)cc1 | 15
79 | COc1ccccc1NC(=O)/C=C1\SCC(=O)N1C | 2.4
80 | CCCN(CC(=O)Nc1cc(Cl)ccc1Cl)C(=O)CN1C(=O)C2CCCCC2C1=O (stereo not drawn) | -9.8
81 | COc1ccc(Cn2cc(F)c(=O)n(C)c2=O)cc1[N+](=O)[O-] | 3.08
82 | Cc1nn(Cc2ccccc2)c(C)c1NC(=O)CCCn1nc([N+](=O)[O-])cc1C | 11.9
83 | COc1ccc(C(=O)N/C(=C\c2cccc3ccccc23)C(=O)NCCc2c[nH]c3ccccc23)cc1OC | -0.582
84 | CCOc1nc(-c2ccccc2)ccc1-c1noc(COC)n1 | 16
85 | COc1ccccc1C(=O)NC(CCSC)C(=O)NCc1ccccn1 (stereo not drawn) | -6.78
86 | COc1ccc(Cl)cc1C(=O)Nc1cccc(-c2ccc3nncn3n2)c1 | 3.92
87 | CC1CC(=O)C2=C(C1)Nc1ccccc1N(C(=O)COc1ccccc1)C2c1ccco1 (stereo not drawn) | -1.53
